Measured values as given in US20260022150A1 (KEROS THERAPEUTICS, published 2026).

T1: human GDNF family receptor alpha-1 (GFRα1) joined to an Fc domain at its C-terminus (human, UniProt P56159-2 25-445)
T1 construct: Bought from R&D Systems; also called GFRa1-hFc; human GFRα1 Fc chimera (R&D Systems); not shown: human Fc domain joined to the C-terminus of GFRα1
T1 sequence (looked up): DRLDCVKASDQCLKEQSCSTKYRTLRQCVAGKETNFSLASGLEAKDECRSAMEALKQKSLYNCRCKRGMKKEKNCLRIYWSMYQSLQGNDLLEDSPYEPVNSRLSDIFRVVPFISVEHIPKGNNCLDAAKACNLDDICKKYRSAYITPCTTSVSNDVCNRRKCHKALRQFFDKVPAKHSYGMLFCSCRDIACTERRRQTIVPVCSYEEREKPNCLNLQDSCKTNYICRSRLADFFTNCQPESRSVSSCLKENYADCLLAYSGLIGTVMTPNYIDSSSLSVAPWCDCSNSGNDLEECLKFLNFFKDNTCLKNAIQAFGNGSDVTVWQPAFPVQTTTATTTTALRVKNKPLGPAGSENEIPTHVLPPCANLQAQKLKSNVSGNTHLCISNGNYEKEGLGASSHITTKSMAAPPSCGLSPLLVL


Biological target: T1, human GDNF family receptor alpha-1 …
Assay: SPR; GFRα1-Fc chimera captured on CM5 chip by His-tag capture kit, fusion polypeptide flowed over; apparent KD (KD,app)
Text: Surface Plasmon Resonance (SPR) was used to determine the binding affinities of the GDNF fusion polypeptides to GFRα1. The GDNF fusion polypeptides in this example include fusion polypeptides 2-4 as described in Example 1, as well as Fc (T366W)-GGG-hGDNF₁₁₇₋₂₁₁ (SEQ ID NO: 37) (fusion polypeptide 6) which has an Fc domain having the amino acid substitution T366W (relative to the sequence of human IgG1) joined to the N-terminus of the GDNF variant having amino acids 117-211 of SEQ ID NO: 1 through a GGG linker. The SPR assay was configured to capture human GFRα1, GFRα2, and GFRα3 Fc chimeras (R&D Systems) onto a CM5 chip surface using His-tag capture kit (GE Healthcare) to appropriate levels for kinetic analysis. GDNF fusion polypeptides were flowed over the immobilized GFRs to measure the kinetics of GDNF fusion polypeptide and GFR association and dissociation. The binding of various concentrations of GDNF fusion polypeptides was measured in HBS-EP buffer (GE Healthcare) at a flow rate of 30 μL/min. Binding curves were fitted using Scrubber2 software to obtain apparent binding affinities and kinetic constants.

Row | Kd [nM] | Binder
1 | 0.87 | Fusion polypeptide 3 (Fc-GGG-hGDNF110-211) (Fc fusion) [no letters for human IgG1 Fc]GGGGQRGKNRGCVLTAIHLNVTDLGLGYETKEELIFRYCSGSCDAAETTYDKILKNLSRNRRLVSDKVGQACCRPIAFDDDLSFLDDNLVYHILRKHSAKRCGCI
2 | 4.9 | Fusion polypeptide 6 (Fc (T366W)-GGG-hGDNF117-211) (Fc fusion) [no letters for human IgG1 Fc with changes]GGGGCVLTAIHLNVTDLGLGYETKEELIFRYCSGSCDAAETTYDKILKNLSRNRRLVSDKVGQACCRPIAFDDDLSFLDDNLVYHILRKHSAKRCGCI
3 | 0.16 | Fusion polypeptide 2 (Fc-GGG-hGDNF92-211) (Fc fusion) [no letters for human IgG1 Fc]GGGNRQAAAANPENSRGKGRRGQRGKNRGCVLTAIHLNVTDLGLGYETKEELIFRYCSGSCDAAETTYDKILKNLSRNRRLVSDKVGQACCRPIAFDDDLSFLDDNLVYHILRKHSAKRCGCI
4 | 3.8 | Fusion polypeptide 4 (Fc-GGG-hGDNF117-211) (Fc fusion) [no letters for human IgG1 Fc]GGGGCVLTAIHLNVTDLGLGYETKEELIFRYCSGSCDAAETTYDKILKNLSRNRRLVSDKVGQACCRPIAFDDDLSFLDDNLVYHILRKHSAKRCGCI
